The values below come from the supplement of paper PMC4604168 (melanoma cell lines).

Among the test systems are WM115; WM1716; WM1745; WM3526; WM3619; WM451Lu.
Experiment in all cases: cell count relative to DMSO control; melanoma cells; higher = more viable cells
Common to all, as to conditions: library dose: low library concentration; 72 h

Molecules are shown by their SMILES. The list shows a part of the results. Many values rest on one well or one pass, so single values are uncertain.
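Also: cell number obtained by counting DAPI-stained nuclei in high-throughput microscope images with image analysis software, screen run in 1,536-well plates.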

`CCN(CC)CCNC(=O)c1c(C)[nH]c(/C=C2\C(=O)Nc3ccc(F)cc32)c1C` [sunitinib] + Cc1cc(N2CCOCC2)cc2[nH]c(-c3c(NC[C@@H](O)c4cccc(Cl)c4)cc[nH]c3=O)nc12 [BMS536924] (first compound 0.4 µM, partner dose 0.2 µM): the cell count in the experiment on WM115 was found to be 108%; with WM1716 it was 124%; with WM1745, 62.5%; in the experiment on WM3526, 74%; with WM3619 it was 91.3%; in the experiment on WM451Lu, 84.3%.

On to `CCN(CC)CCNC(=O)c1c(C)[nH]c(/C=C2\C(=O)Nc3ccc(F)cc32)c1C` [sunitinib] + Cc1ccc(NC(=O)c2cccc(N(C)C)c2)cc1NC(=O)c1ccc(O)cc1 [ZM336372] (first compound 0.4 µM, partner dose 2 µM), for which the cell count in the experiment with WM115 is 96.6%; in the experiment on WM1716 it was 128%; in the experiment on WM1745, 85%; in the experiment on WM3526 it was 90.8%; in the experiment with WM3619, 90.7%; in the experiment on WM451Lu, 108%.

With `COc1cc([C@@H]2c3cc4c(cc3[C@@H](O[C@@H]3O[C@@H]5CO[C@@H](C)O[C@H]5[C@H](O)[C@H]3O)[C@H]3COC(=O)[C@H]23)OCO4)cc(OC)c1O` [etoposide] + C[C@@H](N)c1ccc(C(=O)Nc2ccnc3[nH]ccc23)cc1 [RKI983] (first compound 0.02 µM, partner dose 0.4 µM), the cell count in the experiment with WM115 is 98.5%; with WM1716 it was 65%; with WM1745, 87.8%; in the experiment with WM3526, 114%; with WM3619 it was 106%; with WM451Lu it was 102%.

Regarding `CCN(CC)CCNC(=O)c1c(C)[nH]c(/C=C2\C(=O)Nc3ccc(F)cc32)c1C` [sunitinib] + O=C(O)c1ccc2c(c1)nc(Nc1cccc(Cl)c1)c1ccncc12 [CX4945] (first compound 0.4 µM, partner dose 0.4 µM), the cell count with WM115 was 87.1%; in the experiment with WM1716 it was 123%; with WM1745, 82.1%; with WM3526, 72%; with WM3619, 112%; in the experiment on WM451Lu, 90.2%.

Consider `CCN(CC)CCNC(=O)c1c(C)[nH]c(/C=C2\C(=O)Nc3ccc(F)cc32)c1C` [sunitinib] + CCCCCCCCc1ccc(CCC(N)(CO)CO)cc1 [fingolimod] (first compound 0.4 µM, partner dose 2 µM), for which the cell count with WM115 came to 99.2%; with WM1716, 120%; with WM1745, 60.9%; in the experiment on WM3526, 61.1%; in the experiment on WM3619, 97.6%; in the experiment on WM451Lu it was 103%.

On to `Cn1cnc2c(F)c(Nc3ccc(Br)cc3Cl)c(C(=O)NOCCO)cc21` [selumetinib] + CC(C)(C)c1cnc(CSc2cnc(NC(=O)C3CCNCC3)s2)o1 [SNS-032] (first compound 0.015 µM, partner dose 0.01 µM), for which the cell count with WM115 is 90.3%; with WM1716, 109%; in the experiment on WM1745, 94.9%; with WM3526 it was 70.5%; in the experiment on WM3619, 78.2%; with WM451Lu, 111%.

For `C[C@]1(O)C[C@@H](c2nc(-c3ccc4ccc(-c5ccccc5)nc4c3)c3c(N)nccn32)C1` + Nc1ccn([C@@H]2O[C@H](CO)[C@@H](O)C2(F)F)c(=O)n1 [gemcitabine] (first compound 0.4 µM, partner dose 0.0004 µM), the cell count in the experiment on WM115 amounted to 109%; with WM1716, 90.6%; with WM1745, 68.9%; in the experiment on WM3526, 83.6%; in the experiment with WM3619, 74.5%; in the experiment with WM451Lu, 102%.

As for `C[C@]1(O)C[C@@H](c2nc(-c3ccc4ccc(-c5ccccc5)nc4c3)c3c(N)nccn32)C1` + CS(=O)(=O)CCNCc1ccc(-c2ccc3ncnc(Nc4ccc(OCc5cccc(F)c5)c(Cl)c4)c3c2)o1 [lapatinib] (first compound 0.4 µM, partner dose 0.8 µM), the cell count with WM115 was determined as 116%; in the experiment with WM1716, 147%; in the experiment on WM1745, 81.2%; with WM3526, 80.2%; in the experiment on WM3619 it was 93%; in the experiment on WM451Lu it was 106%.

Turning to `CCN(CC)CCNC(=O)c1c(C)[nH]c(/C=C2\C(=O)Nc3ccc(F)cc32)c1C` [sunitinib] + Cc1nc(Nc2ncc(C(=O)Nc3c(C)cccc3Cl)s2)cc(N2CCN(CCO)CC2)n1 [dasatanib] (first compound 0.4 µM, partner dose 0.004 µM), the cell count amounted to 88.2% in the experiment on WM115; 126% in the experiment on WM1716; 77.3% in the experiment with WM1745; 77.2% in the experiment on WM3526; 109% in the experiment with WM3619; 86.2% with WM451Lu.

Regarding `Cn1cnc2c(F)c(Nc3ccc(Br)cc3Cl)c(C(=O)NOCCO)cc21` [selumetinib] + CCc1ccc(CCOc2ccc(CC3SC(=O)NC3=O)cc2)nc1 [pioglitazone] (first compound 0.015 µM, partner dose 2 µM), the cell count with WM115 is 86.6%; with WM1716, 107%; in the experiment on WM1745, 87.8%; in the experiment on WM3526 it was 73.2%; with WM3619, 64.1%; in the experiment on WM451Lu, 96.7%.

For the compound `Cn1cnc2c(F)c(Nc3ccc(Br)cc3Cl)c(C(=O)NOCCO)cc21` [selumetinib] + Cc1cc(N2CCOCC2)cc2[nH]c(-c3c(NC[C@@H](O)c4cccc(Cl)c4)cc[nH]c3=O)nc12 [BMS536924] (first compound 0.015 µM, partner dose 0.2 µM), the cell count worked out at 83.3% with WM115; 113% in the experiment with WM1716; 76.3% with WM1745; 70.7% in the experiment with WM3526; 64.7% with WM3619; 108% with WM451Lu.

In the case of `COc1cc([C@@H]2c3cc4c(cc3[C@@H](O[C@@H]3O[C@@H]5CO[C@@H](C)O[C@H]5[C@H](O)[C@H]3O)[C@H]3COC(=O)[C@H]23)OCO4)cc(OC)c1O` [etoposide] + N#Cc1c(O)c2c(-c3ccc(-c4ccccc4O)cc3)csc2[nH]c1=O [A769662] (first compound 0.02 µM, partner dose 2 µM), the cell count came out at 91.2% with WM115; 88.8% in the experiment with WM1716; 109% with WM1745; 92.3% in the experiment with WM3526; 113% with WM3619; 86.6% in the experiment on WM451Lu.

Regarding `CCN(CC)CCNC(=O)c1c(C)[nH]c(/C=C2\C(=O)Nc3ccc(F)cc32)c1C` [sunitinib] + COCC[n+]1c2c(n(Cc3cnccn3)c1C)C(=O)c1ccccc1C2=O [YM155] (first compound 0.4 µM, partner dose 0.0004 µM), the cell count in the experiment with WM115 was found to be 100%; in the experiment on WM1716, 118%; in the experiment on WM1745 it was 96.2%; in the experiment with WM3526, 87.7%; in the experiment on WM3619, 102%; with WM451Lu, 73.5%.

As to `C[C@]1(O)C[C@@H](c2nc(-c3ccc4ccc(-c5ccccc5)nc4c3)c3c(N)nccn32)C1` + Cn1c(Nc2ccc(C(F)(F)F)cc2)nc2cc(Oc3ccnc(-c4ncc(C(F)(F)F)[nH]4)c3)ccc21 [CHIR265] (first compound 0.4 µM, partner dose 0.08 µM), the cell count with WM115 worked out at 66.3%; in the experiment with WM1716, 90%; in the experiment on WM1745, 56.2%; with WM3526, 58.2%; in the experiment on WM3619, 70.4%; in the experiment on WM451Lu it was 101%.

Turning to `Cn1cnc2c(F)c(Nc3ccc(Br)cc3Cl)c(C(=O)NOCCO)cc21` [selumetinib] + NC1(c2ccc(-c3nc4ccn5c(=O)[nH]nc5c4cc3-c3ccccc3)cc2)CCC1 [MK2206] (first compound 0.015 µM, partner dose 0.4 µM), the cell count in the experiment on WM115 came to 59%; in the experiment on WM1716, 95.5%; in the experiment on WM1745, 86.4%; in the experiment on WM3526, 72%; in the experiment with WM3619 it was 56.3%; in the experiment on WM451Lu, 103%.

As for `Cn1cnc2c(F)c(Nc3ccc(Br)cc3Cl)c(C(=O)NOCCO)cc21` [selumetinib] + COc1cc2ncnc(Nc3ccc(Oc4ccccc4)cc3)c2cc1OC [SrcI1] (first compound 0.015 µM, partner dose 2 µM), the cell count in the experiment with WM115 came out at 83.1%; in the experiment on WM1716, 113%; in the experiment on WM1745 it was 87.9%; with WM3526 it was 71.8%; in the experiment on WM3619, 92.5%; with WM451Lu, 112%.

In the case of `COc1cc([C@@H]2c3cc4c(cc3[C@@H](O[C@@H]3O[C@@H]5CO[C@@H](C)O[C@H]5[C@H](O)[C@H]3O)[C@H]3COC(=O)[C@H]23)OCO4)cc(OC)c1O` [etoposide] + CC(C)(C)c1cnc(CSc2cnc(NC(=O)C3CCNCC3)s2)o1 [SNS-032] (first compound 0.02 µM, partner dose 0.01 µM), the cell count was 91.6% in the experiment with WM115; 83% with WM1716; 88.5% in the experiment with WM1745; 106% in the experiment with WM3526; 88% in the experiment on WM3619; 86.6% with WM451Lu.

On to `C[C@]1(O)C[C@@H](c2nc(-c3ccc4ccc(-c5ccccc5)nc4c3)c3c(N)nccn32)C1` + O=C(Nc1ccccc1)c1cc([N+](=O)[O-])ccc1Cl [GW9662] (first compound 0.4 µM, partner dose 2 µM), for which the cell count is 107% in the experiment with WM115; 86.4% in the experiment with WM1716; 72% in the experiment with WM1745; 91.2% with WM3526; 86.6% with WM3619; 82.9% in the experiment with WM451Lu.

As for `CCN(CC)CCNC(=O)c1c(C)[nH]c(/C=C2\C(=O)Nc3ccc(F)cc32)c1C` [sunitinib] + Nc1nc(F)nc2c1ncn2[C@@H]1O[C@H](CO)[C@@H](O)[C@@H]1O [fludarabine] (first compound 0.4 µM, partner dose 0.2 µM), the cell count in the experiment with WM115 stood at 101%; in the experiment with WM1716 it was 140%; with WM1745 it was 91.9%; in the experiment with WM3526 it was 30.7%; with WM3619 it was 99.7%; in the experiment with WM451Lu it was 49.2%.

Regarding `C[C@]1(O)C[C@@H](c2nc(-c3ccc4ccc(-c5ccccc5)nc4c3)c3c(N)nccn32)C1` + Nc1nc(F)nc2c1ncn2[C@@H]1O[C@H](CO)[C@@H](O)[C@@H]1O [fludarabine] (first compound 0.4 µM, partner dose 0.2 µM), the cell count in the experiment with WM115 was 91.7%; with WM1716, 101%; in the experiment with WM1745 it was 70.1%; with WM3526, 26.4%; with WM3619, 83.4%; in the experiment on WM451Lu it was 44%.

As to `Cn1cnc2c(F)c(Nc3ccc(Br)cc3Cl)c(C(=O)NOCCO)cc21` [selumetinib] + CN(NC(=O)CC(=O)NN(C)C(=S)c1ccccc1)C(=S)c1ccccc1 [STA4783] (first compound 0.015 µM, partner dose 0.006 µM), the cell count amounted to 79.5% in the experiment with WM115; 87.4% with WM1716; 36.1% with WM1745; 79% in the experiment on WM3526; 52.8% in the experiment on WM3619; 121% in the experiment with WM451Lu.

In the case of `COc1cc([C@@H]2c3cc4c(cc3[C@@H](O[C@@H]3O[C@@H]5CO[C@@H](C)O[C@H]5[C@H](O)[C@H]3O)[C@H]3COC(=O)[C@H]23)OCO4)cc(OC)c1O` [etoposide] + O=C(Nc1cc(C(F)(F)F)cc(C(F)(F)F)c1)c1cc(Cl)ccc1O [IMD0354] (first compound 0.02 µM, partner dose 0.016 µM), the cell count worked out at 94.1% in the experiment with WM115; 91.2% in the experiment on WM1716; 102% in the experiment with WM1745; 87.4% with WM3526; 112% in the experiment with WM3619; 99.1% in the experiment on WM451Lu.
